Laboratory results: publication PMC9911399, “Two distinct binding modes provide the RNA-binding protein RbFox with extraordinary sequence specificity”
Changes are numbered by the printed parent chain; changes in the protein carry UniProt numbers. The list shows a part of the results.

T1: RBFOX1 RRM (Homo sapiens, UniProt Q9NWB1 109-208)
T1 sequence: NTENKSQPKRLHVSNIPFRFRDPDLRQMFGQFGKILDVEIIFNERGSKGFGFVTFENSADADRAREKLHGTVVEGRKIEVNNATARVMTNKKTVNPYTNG

B1: CGGCGAG (DNA:RNA)
RNA: GGGAGACCGGAAUUCAGAUUGUCCCGGCGAGUUAAAUCCCGUCGUAGCCACCA
DNA 1: CAATCTGAATTCCGGTCTCCC
DNA 2: TGGTGGCTACGACGGGATT
B2: ACAACGC (DNA:RNA)
RNA: GGGAGACCGGAAUUCAGAUUGUCCACAACGCUUAAAUCCCGUCGUAGCCACCA
DNA 1: CAATCTGAATTCCGGTCTCCC
DNA 2: TGGTGGCTACGACGGGATT
B3: CAACCAC (DNA:RNA)
RNA: B2 RNA with A25C, C26A, A28C, G30A
DNA 1: CAATCTGAATTCCGGTCTCCC
DNA 2: TGGTGGCTACGACGGGATT
B4: GCCAAGA (DNA:RNA)
RNA: B2 RNA with A25G, A27C, C29A, C31A
DNA 1: CAATCTGAATTCCGGTCTCCC
DNA 2: TGGTGGCTACGACGGGATT
B5: GCUGGUA (DNA:RNA)
RNA: B2 RNA with A25G, A27U, A28G, C29G, G30U, C31A
DNA 1: CAATCTGAATTCCGGTCTCCC
DNA 2: TGGTGGCTACGACGGGATT
B6: UAACGUU (DNA:RNA)
RNA: B1 RNA with C25U, G26A, G27A, A30U, G31U
DNA 1: CAATCTGAATTCCGGTCTCCC
DNA 2: TGGTGGCTACGACGGGATT
B7: GGCUACU (DNA:RNA)
RNA: B1 RNA with C25G, G27C, C28U, G29A, A30C, G31U
DNA 1: CAATCTGAATTCCGGTCTCCC
DNA 2: TGGTGGCTACGACGGGATT
B8: ACACCUU (DNA:RNA)
RNA: B2 RNA with A28C, G30U, C31U
DNA 1: CAATCTGAATTCCGGTCTCCC
DNA 2: TGGTGGCTACGACGGGATT
B9: UCGCCGA (DNA:RNA)
RNA: B2 RNA with A25U, A27G, A28C, C31A
DNA 1: CAATCTGAATTCCGGTCTCCC
DNA 2: TGGTGGCTACGACGGGATT
B10: UAUCGGC (DNA:RNA)
RNA: B2 RNA with A25U, C26A, A27U, A28C, C29G
DNA 1: CAATCTGAATTCCGGTCTCCC
DNA 2: TGGTGGCTACGACGGGATT
B11: UACAGUC (DNA:RNA)
RNA: B2 RNA with A25U, C26A, A27C, C29G, G30U
DNA 1: CAATCTGAATTCCGGTCTCCC
DNA 2: TGGTGGCTACGACGGGATT
B12: UAGUCUA (DNA:RNA)
RNA: B2 RNA with A25U, C26A, A27G, A28U, G30U, C31A
DNA 1: CAATCTGAATTCCGGTCTCCC
DNA 2: TGGTGGCTACGACGGGATT
B13: GUACGCG (DNA:RNA)
RNA: B1 RNA with C25G, G26U, G27A, A30C
DNA 1: CAATCTGAATTCCGGTCTCCC
DNA 2: TGGTGGCTACGACGGGATT
B14: AUGAGAC (DNA:RNA)
RNA: B2 RNA with C26U, A27G, C29G, G30A
DNA 1: CAATCTGAATTCCGGTCTCCC
DNA 2: TGGTGGCTACGACGGGATT
B15: GUAUCCA (DNA:RNA)
RNA: B2 RNA with A25G, C26U, A28U, G30C, C31A
DNA 1: CAATCTGAATTCCGGTCTCCC
DNA 2: TGGTGGCTACGACGGGATT
B16: ACGUUCU (DNA:RNA)
RNA: B2 RNA with A27G, A28U, C29U, G30C, C31U
DNA 1: CAATCTGAATTCCGGTCTCCC
DNA 2: TGGTGGCTACGACGGGATT
B17: CAGUCGG (DNA:RNA)
RNA: B1 RNA with G26A, C28U, G29C, A30G
DNA 1: CAATCTGAATTCCGGTCTCCC
DNA 2: TGGTGGCTACGACGGGATT
B18: GCUAGGA (DNA:RNA)
RNA: B2 RNA with A25G, A27U, C29G, C31A
DNA 1: CAATCTGAATTCCGGTCTCCC
DNA 2: TGGTGGCTACGACGGGATT
B19: AUACCGC (DNA:RNA)
RNA: B2 RNA with C26U, A28C
DNA 1: CAATCTGAATTCCGGTCTCCC
DNA 2: TGGTGGCTACGACGGGATT
B20: UCCAGGG (DNA:RNA)
RNA: B2 RNA with A25U, A27C, C29G, C31G
DNA 1: CAATCTGAATTCCGGTCTCCC
DNA 2: TGGTGGCTACGACGGGATT
B21: UUGUCCC (DNA:RNA)
RNA: B2 RNA with A25U, C26U, A27G, A28U, G30C
DNA 1: CAATCTGAATTCCGGTCTCCC
DNA 2: TGGTGGCTACGACGGGATT
B22: AGGGGAG (DNA:RNA)
RNA: B1 RNA with C25A, C28G
DNA 1: CAATCTGAATTCCGGTCTCCC
DNA 2: TGGTGGCTACGACGGGATT
B23: UUCCUCU (DNA:RNA)
RNA: B1 RNA with C25U, G26U, G27C, G29U, A30C, G31U
DNA 1: CAATCTGAATTCCGGTCTCCC
DNA 2: TGGTGGCTACGACGGGATT
B24: AGUUCAA (DNA:RNA)
RNA: B2 RNA with C26G, A27U, A28U, G30A, C31A
DNA 1: CAATCTGAATTCCGGTCTCCC
DNA 2: TGGTGGCTACGACGGGATT
B25: UAGUAUA (DNA:RNA)
RNA: B1 RNA with C25U, G26A, C28U, G29A, A30U, G31A
DNA 1: CAATCTGAATTCCGGTCTCCC
DNA 2: TGGTGGCTACGACGGGATT
B26: UAUAGGA (DNA:RNA)
RNA: B2 RNA with A25U, C26A, A27U, C29G, C31A
DNA 1: CAATCTGAATTCCGGTCTCCC
DNA 2: TGGTGGCTACGACGGGATT
B27: AGAAGCA (DNA:RNA)
RNA: B2 RNA with C26G, C29G, G30C, C31A
DNA 1: CAATCTGAATTCCGGTCTCCC
DNA 2: TGGTGGCTACGACGGGATT
B28: UGUGCCA (DNA:RNA)
RNA: B2 RNA with A25U, C26G, A27U, A28G, G30C, C31A
DNA 1: CAATCTGAATTCCGGTCTCCC
DNA 2: TGGTGGCTACGACGGGATT
B29: CGAACGG (DNA:RNA)
RNA: B2 RNA with A25C, C26G, C31G
DNA 1: CAATCTGAATTCCGGTCTCCC
DNA 2: TGGTGGCTACGACGGGATT
B30: UAUAAUA (DNA:RNA)
RNA: B2 RNA with A25U, C26A, A27U, C29A, G30U, C31A
DNA 1: CAATCTGAATTCCGGTCTCCC
DNA 2: TGGTGGCTACGACGGGATT
B31: GGUUCUU (DNA:RNA)
RNA: B2 RNA with A25G, C26G, A27U, A28U, G30U, C31U
DNA 1: CAATCTGAATTCCGGTCTCCC
DNA 2: TGGTGGCTACGACGGGATT

Biological target: T1, RBFOX1 RRM
Experiment: EMSA; HiTS-Eq, 1 nM pool, 10 min; buffer printed only for the single-RNA assays: 10 mM Tris pH 7.5, 150 mM NaCl, 3.4 mM EDTA, 0.001% NP-40, 30 C
Details: tags: His6 N-terminal (pET28a); label: 5' 32P
How it was run: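 A pool of RNA with 7 randomized nucleotides, 5′-radiolabelled and with DNA-annealed flanks, was equilibrated at 1 nM for 10 min in 50 µL with purified RbFox RRM, wild type or mutant, across increasing protein concentrations. Free RNA was separated by 8% native PAGE, excised, reverse-transcribed, barcoded by PCR and sequenced. Relative association constants were obtained from read-count changes of each RNA species versus the control reaction and normalised to the cognate motif.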

Binder | binding signal
B1 | 0.0186 KA relative to UGCAUGU
B2 | 0.00245 KA relative to UGCAUGU
B3 | 0.000237 KA relative to UGCAUGU
B4 | 0.0151 KA relative to UGCAUGU
B5 | 0.0214 KA relative to UGCAUGU
B6 | 0.00814 KA relative to UGCAUGU
B7 | 0.0114 KA relative to UGCAUGU
B8 | 0.000558 KA relative to UGCAUGU
B9 | 0.0122 KA relative to UGCAUGU
B10 | 0.0104 KA relative to UGCAUGU
B11 | 0.00675 KA relative to UGCAUGU
B12 | 0.00586 KA relative to UGCAUGU
B13 | 0.0105 KA relative to UGCAUGU
B14 | 0.00702 KA relative to UGCAUGU
B15 | 0.00724 KA relative to UGCAUGU
B16 | 0.00892 KA relative to UGCAUGU

Binder | binding signal
B17 | 0.0104 KA relative to UGCAUGU
B18 | 0.00693 KA relative to UGCAUGU
B19 | 0.00238 KA relative to UGCAUGU
B20 | 0.00615 KA relative to UGCAUGU
B21 | 0.0102 KA relative to UGCAUGU
B22 | 0.0135 KA relative to UGCAUGU
B23 | 0.0101 KA relative to UGCAUGU
B24 | 0.00452 KA relative to UGCAUGU
B25 | 0.00856 KA relative to UGCAUGU
B26 | 0.00674 KA relative to UGCAUGU
B27 | 0.0083 KA relative to UGCAUGU
B28 | 0.0127 KA relative to UGCAUGU
B29 | 0.0126 KA relative to UGCAUGU
B30 | 0.00448 KA relative to UGCAUGU
B31 | 0.0104 KA relative to UGCAUGU
